Source: the supplement of paper PMC12217912
Some of the results follow. The full chains were built here from the parent and the listed change. Inactive controls read about 0.05.

B1: TEV protease; numbered along this chain (parent)
chain: MGESLFKGPRDYNPISSSICHLTNESDGHTTSLYGIGFGPFIITNKHLFRRNNGTLVVQSLHGVFKVKDTTTLQQHLVDGRDMIIIRMPKDFPPFPQKLKFREPQREERICLVTTNFQTKSMSSMVSDTSCTFPSGDGIFWKHWIQTKDGQCGSPLVSTRDGFIVGIHSASNFTNTNNYFTSVPKNFMELLTNQEAQQWVSGWRLNADSVLWGGHKVFMVKPEEPFQPVKEATQL

Variants of: B1
Assay: raw area under fraction-flipped curve 0-4 h after induction (AUC4h, not background-subtracted), DNA-recorder readout of cleavage of the substrate (dimensionless); higher = more cleavage of the substrate by the protease variant
Details: temperature: 34 °C; time window: 0-4 h after rhamnose induction
Experimental: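 In vivo DNA recorder in E. coli TOP10(DE3) ΔrhaA at 34 °C. Each TEVp single-site mutant (parent TEVp 0) is paired with a single-site variant of the 7-mer TEVs (canonical ENLYFQ|S). The substrate sits between flexible linkers in a Bxb1-sfGFP-TEVs-SsrA fusion, so cleavage stabilises Bxb1 and speeds flipping of a recombination array, read by NGS. The value is the raw area under the fraction-flipped curve over 0-4 h after rhamnose induction (AUC4h), with ≥20 reads per time point. It is not background-subtracted; inactive controls average about 0.047.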
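Also: Bxb1 expression induced with 0.2% (w/v) L-rhamnose at OD600 near 0.5, cultures sampled hourly, flipped fraction per protease–substrate barcode pair counted by paired-end Illumina sequencing.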

Variant	area with substrate ENLAFQS	area with substrate ENLCFQS	area with substrate ENLDFQS	area with substrate ENLEFQS	area with substrate ENLGFQS	area with substrate ENLHFQS	area with substrate ENLIFQS	area with substrate ENLKFQS	area with substrate ENLNFQS	area with substrate ENLQFQS
MGESLFKGPRDYNPGSSSICHLTNESDGHTTSLYGIGFGPFIITNKHLFRRNNGTLVVQSLHGVFKVKDTTTLQQHLVDGRDMIIIRMPKDFPPFPQKLKFREPQREERICLVTTNFQTKSMSSMVSDTSCTFPSGDGIFWKHWIQTKDGQCGSPLVSTRDGFIVGIHSASNFTNTNNYFTSVPKNFMELLTNQEAQQWVSGWRLNADSVLWGGHKVFMVKPEEPFQPVKEATQL [I15G]	0.0463	0.0705	0.0595	0.0835	0.0642	0.0654	0.0669	0.0631	0.0562	0.0604
MGESLFKGPRDYNPISSSICHLTNESDGHTTSLYGIGFGPFIITNKHLFRRNNGTLVVQSLHGVFKVKDTTTLQQHLVDGRDMIIIRMPKDFPPFPQKLKFREPQREERICLVTTNFQTKSMSSMVSDTSCTFPSGDGIFWKHWIQTKDGQCGSPLVSTRDGFIVGIHSASNFTNTNNYFTSVPKNFMELLTNQEAQQWVSGWRLNADSPLWGGHKVFMVKPEEPFQPVKEATQL [V210P]	0.052		0.0642						0.0534	
MGESLFKGPRDYNPISSSICHLTNESDGHTTSLYGIGFGPFIITNKHLFRRNNGTLVVQSLHGVFKVKDTTTLQQHLVDGRDMIIIRMPKDFPPFPQKLKFREPQREERICLVTTNFQTKSMSSMVSDTSCTFPSGDGIFWKHWIQTKDGQCGSPLVSTRDGFIVGIHSASNFTNTNNYFTSVPKNFMELLTNQEAQQWVSGWRSNADSVLWGGHKVFMVKPEEPFQPVKEATQL [L205S]	0.0571	0.0651	0.0455					0.0665		
MGESLFKGPRDYNPISSSICHLTNESDGHTTSLYGIGFGPFIITNKHLFRRNNGTLVVQSLHGVFKVKDTTTLQQHLVDGRDMIIIRMPKDFPPFPQKLKFREPQREERICLVTTNFQTKSMSSMVSDTSCTFPSGDGIFWKHWIQTKDGQCGSPLVSTRDGFIVGIHSAYNFTNTNNYFTSVPKNFMELLTNQEAQQWVSGWRLNADSVLWGGHKVFMVKPEEPFQPVKEATQL [S171Y]	0.0683	0.051	0.0617	0.0792	0.0603	0.0653		0.0555	0.0644	
MGESLFKGPRDYNPISSSICHLTNESDGHTTSLYGIGFGPFIITNKHLFRRNNGTLVVQSLHGVFKVKDTTTLQQHLVDGRDMIIIRMPKDFPPFPQKLKFREPQREERICLVTRNFQTKSMSSMVSDTSCTFPSGDGIFWKHWIQTKDGQCGSPLVSTRDGFIVGIHSASNFTNTNNYFTSVPKNFMELLTNQEAQQWVSGWRLNADSVLWGGHKVFMVKPEEPFQPVKEATQL [T115R]	0.0785		0.0623			0.0742	0.0807	0.0838	0.06	
MGESLFKGPRDYNPISSSICHLTNESDGHDTSLYGIGFGPFIITNKHLFRRNNGTLVVQSLHGVFKVKDTTTLQQHLVDGRDMIIIRMPKDFPPFPQKLKFREPQREERICLVTTNFQTKSMSSMVSDTSCTFPSGDGIFWKHWIQTKDGQCGSPLVSTRDGFIVGIHSASNFTNTNNYFTSVPKNFMELLTNQEAQQWVSGWRLNADSVLWGGHKVFMVKPEEPFQPVKEATQL [T30D]	0.0645	0.0655		0.0547	0.0673	0.0646			0.0624	0.0737
MGESLFKGPRDYNPISSSICHLTNESDGHTTSLYGIGFGPFIITNKHLFRRNNGTLVVQSLHGVFKVKDTTTLQQHLVDGRDMIIIRMPKDFPPFPQKLKFREPQREERICLVTTNFQTKSMSSMVSDTSCTFPSGDGIFWKHWIQTKDGQCGSPLVSTRDGFIVGIHSASNFINTNNYFTSVPKNFMELLTNQEAQQWVSGWRLNADSVLWGGHKVFMVKPEEPFQPVKEATQL [T174I]	0.0753						0.0518			
MGESLFKGPRDYNPISSSICHLTNESDGHTTSLYTIGFGPFIITNKHLFRRNNGTLVVQSLHGVFKVKDTTTLQQHLVDGRDMIIIRMPKDFPPFPQKLKFREPQREERICLVTTNFQTKSMSSMVSDTSCTFPSGDGIFWKHWIQTKDGQCGSPLVSTRDGFIVGIHSASNFTNTNNYFTSVPKNFMELLTNQEAQQWVSGWRLNADSVLWGGHKVFMVKPEEPFQPVKEATQL [G35T]	0.0459		0.0456	0.0226		0.0347		0.0558		0.0335
MGESLFKGPRDYNPISSSICHLTNESDGHTTSLYGIGFGPFIITNKHLFRRNNGTLVVQSLHGVFKVKDTTTLQQHLVDGRDMIIIRMPKDFPPFPTKLKFREPQREERICLVTTNFQTKSMSSMVSDTSCTFPSGDGIFWKHWIQTKDGQCGSPLVSTRDGFIVGIHSASNFTNTNNYFTSVPKNFMELLTNQEAQQWVSGWRLNADSVLWGGHKVFMVKPEEPFQPVKEATQL [Q97T]	0.0677									
MGESLFKGPRDYNPISSSICHLTNESDGHTTSLYGIGFGPFIITNKHLFRRNNGTLVVQSLHGVFKVKDTTTLQQHLVDGRDMIIIRMPKDFPPFPYKLKFREPQREERICLVTTNFQTKSMSSMVSDTSCTFPSGDGIFWKHWIQTKDGQCGSPLVSTRDGFIVGIHSASNFTNTNNYFTSVPKNFMELLTNQEAQQWVSGWRLNADSVLWGGHKVFMVKPEEPFQPVKEATQL [Q97Y]	0.064								0.034	
MGESLFKGPRDYNPISSSICHLTNESDGHTTSLYGIGFGPFIITNKHLFRRNNGTLVVQSLHGVFKVKDTTTLQQHLVDGRDMIIIRMPKDFPPFPQKLKFREPQREERICLVTTNFQTKSMSSMVSDTSCTFPSGDGIFWKHWIQTKDGQCGSPLVSTRDGFIVGIHSASNFTNTNNYFTSVPKNFMELLTNQEAQQWVSGWRLNADSVLSGGHKVFMVKPEEPFQPVKEATQL [W212S]	0.0697	0.0463		0.0473						0.0567
MGESLFKGPRDYNPISSSICHLTNESDGHTTSLYGIGFGPFIITNKHLFRRNNGTLVVQSLHGVFKVKDTTTLQQHLVDGRDMIIIRMPKDFPPFPQKLKFREPQREERICLVTTNFQTKSMSSMVSDTSCTFPSGDGIFWKHWIQTKDGQCGSPLVSTRDGNIVGIHSASNFTNTNNYFTSVPKNFMELLTNQEAQQWVSGWRLNADSVLWGGHKVFMVKPEEPFQPVKEATQL [F163N]	0.0586		0.0733				0.0835			

Same assay, conditions: temperature: 34 °C; time window: 0-4 h after rhamnose induction

Variant	area with substrate ENLRFQS	area with substrate ENLSFQS	area with substrate ENLVFQS	area with substrate ENLFFQS	area with substrate ENLWFQS	area with substrate ENLLFQS	area with substrate ENLMFQS	area with substrate ENLPFQS	area with substrate ENLTFQS
MGESLFKGPRDYNPGSSSICHLTNESDGHTTSLYGIGFGPFIITNKHLFRRNNGTLVVQSLHGVFKVKDTTTLQQHLVDGRDMIIIRMPKDFPPFPQKLKFREPQREERICLVTTNFQTKSMSSMVSDTSCTFPSGDGIFWKHWIQTKDGQCGSPLVSTRDGFIVGIHSASNFTNTNNYFTSVPKNFMELLTNQEAQQWVSGWRLNADSVLWGGHKVFMVKPEEPFQPVKEATQL [I15G]	0.0703	0.0638	0.0643						
MGESLFKGPRDYNPISSSICHLTNESDGHTTSLYGIGFGPFIITNKHLFRRNNGTLVVQSLHGVFKVKDTTTLQQHLVDGRDMIIIRMPKDFPPFPQKLKFREPQREERICLVTTNFQTKSMSSMVSDTSCTFPSGDGIFWKHWIQTKDGQCGSPLVSTRDGFIVGIHSASNFTNTNNYFTSVPKNFMELLTNQEAQQWVSGWRLNADSPLWGGHKVFMVKPEEPFQPVKEATQL [V210P]	0.0493			0.0802	0.0382				
MGESLFKGPRDYNPISSSICHLTNESDGHTTSLYGIGFGPFIITNKHLFRRNNGTLVVQSLHGVFKVKDTTTLQQHLVDGRDMIIIRMPKDFPPFPQKLKFREPQREERICLVTTNFQTKSMSSMVSDTSCTFPSGDGIFWKHWIQTKDGQCGSPLVSTRDGFIVGIHSAYNFTNTNNYFTSVPKNFMELLTNQEAQQWVSGWRLNADSVLWGGHKVFMVKPEEPFQPVKEATQL [S171Y]	0.067	0.0796				0.0698	0.0707	0.0565	
MGESLFKGPRDYNPISSSICHLTNESDGHTTSLYGIGFGPFIITNKHLFRRNNGTLVVQSLHGVFKVKDTTTLQQHLVDGRDMIIIRMPKDFPPFPQKLKFREPQREERICLVTRNFQTKSMSSMVSDTSCTFPSGDGIFWKHWIQTKDGQCGSPLVSTRDGFIVGIHSASNFTNTNNYFTSVPKNFMELLTNQEAQQWVSGWRLNADSVLWGGHKVFMVKPEEPFQPVKEATQL [T115R]	0.119	0.0576		0.0799	0.0756				
MGESLFKGPRDYNPISSSICHLTNESDGHDTSLYGIGFGPFIITNKHLFRRNNGTLVVQSLHGVFKVKDTTTLQQHLVDGRDMIIIRMPKDFPPFPQKLKFREPQREERICLVTTNFQTKSMSSMVSDTSCTFPSGDGIFWKHWIQTKDGQCGSPLVSTRDGFIVGIHSASNFTNTNNYFTSVPKNFMELLTNQEAQQWVSGWRLNADSVLWGGHKVFMVKPEEPFQPVKEATQL [T30D]	0.0751		0.0701	0.0728					
MGESLFKGPRDYNPISSSICHLTNESDGHTTSLYTIGFGPFIITNKHLFRRNNGTLVVQSLHGVFKVKDTTTLQQHLVDGRDMIIIRMPKDFPPFPQKLKFREPQREERICLVTTNFQTKSMSSMVSDTSCTFPSGDGIFWKHWIQTKDGQCGSPLVSTRDGFIVGIHSASNFTNTNNYFTSVPKNFMELLTNQEAQQWVSGWRLNADSVLWGGHKVFMVKPEEPFQPVKEATQL [G35T]		0.0483		0.0375				0.0517	
MGESLFKGPRDYNPISSSICHLTNESDGHTTSLYGIGFGPFIITNKHLFRRNNGTLVVQSLHGVFKVKDTTTLQQHLVDGRDMIIIRMPKDFPPFPTKLKFREPQREERICLVTTNFQTKSMSSMVSDTSCTFPSGDGIFWKHWIQTKDGQCGSPLVSTRDGFIVGIHSASNFTNTNNYFTSVPKNFMELLTNQEAQQWVSGWRLNADSVLWGGHKVFMVKPEEPFQPVKEATQL [Q97T]	0.0512			0.115	0.0764		0.097		0.0666
MGESLFKGPRDYNPISSSICHLTNESDGHTTSLYGIGFGPFIITNKHLFRRNNGTLVVQSLHGVFKVKDTTTLQQHLVDGRDMIIIRMPKDFPPFPYKLKFREPQREERICLVTTNFQTKSMSSMVSDTSCTFPSGDGIFWKHWIQTKDGQCGSPLVSTRDGFIVGIHSASNFTNTNNYFTSVPKNFMELLTNQEAQQWVSGWRLNADSVLWGGHKVFMVKPEEPFQPVKEATQL [Q97Y]			0.075	0.091					
MGESLFKGPRDYNPISSSICHLTNESDGHTTSLYGIGFGPFIITNKHLFRRNNGTLVVQSLHGVFKVKDTTTLQQHLVDGRDMIIIRMPKDFPPFPQKLKFREPQREERICLVTTNFQTKSMSSMVSDTSCTFPSGDGIFWKHWIQTKDGQCGSPLVSTRDGFIVGIHSASNFTNTNNYFTSVPKNFMELLTNQEAQQWVSGWRLNADSVLSGGHKVFMVKPEEPFQPVKEATQL [W212S]			0.0598				0.0384	0.0488	
MGESLFKGPRDYNPISSSICHLTNESDGHTTSLYGIGFGPFIITNKHLFRRNNGTLVVQSLHGVFKVKDTTTLQQHLVDGRDMIIIRMPKDFPPFPQKLKFREPQREERICLVTTNFQTKSMSSMVSDTSCTFPSGDGIFWKHWIQTKDGQCGSPLVSTRDGNIVGIHSASNFTNTNNYFTSVPKNFMELLTNQEAQQWVSGWRLNADSVLWGGHKVFMVKPEEPFQPVKEATQL [F163N]				0.0996		0.0727			
